# Source: the supplement of paper PMC10126150
# Values marked as one replicate rest on one cluster of the flow cell; about a third of the high ones do not repeat.
# Tested on: ATP
# Test: switch fluorescence ratio, 500 uM ATP over buffer (Cy3 cluster intensity, sum of 5 cycles each) (fold (ratio)); higher = stronger signal-on switching upon ATP binding; sequences stand for … in TCGTCGGCAGCGTCAGATGTGTATAAGAGACAGTTTTTTTTTTTTTTTTTTTTTTTTT…TC
# Settings: aptamer strand: ATP DNA aptamer (quencher-CACCTGGGGGAGTATTGCGGAGGAAGG + anchor), 100 nM annealed; ATP concentration: 500 uM; one replicate
# Summary of the method: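 The fluorescence ratio divides summed target-cycle Cy3 intensity by summed buffer-cycle Cy3 intensity for each cluster and is averaged per switch-domain sequence. Cy3-labelled switching-strand clusters on a modified Illumina MiSeq flow-cell were annealed to 100 nM quencher-labelled ATP aptamer, then imaged in selection buffer and again after 15 min with 500 uM ATP at 22 °C. Five such cycles were run, with NaOH stripping and re-annealing between them, and clusters outside 100-1000 RFU were excluded.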
# 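Further: ATP exposure 15 min at 22 °C before imaging.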
row,Sequence,switch fluorescence ratio
1,CGGATGGCCC,0.958
2,CGGATTCGCC,1
3,CGGATTGGAG,1.03
4,CGGATTTGCC,0.989
5,CGGATTTTCC,1.15
6,CGGCAAGGAC,2.7
7,CGGCACAAGC,1.13
8,CGGCACACGG,0.992
9,CGGCAGATGA,0.986
10,CGGCAGCCCG,1.03
11,CGGCAGTCTT,1
12,CGGCATAGCG,1.1
13,CGGCATTCTG,0.985
14,CGGCCAATGG,1.03
15,CGGCCACGCT,0.999
16,CGGCCACTG,1.01
17,CGGCCATCTG,0.989
18,CGGCCGGTGA,1.07
19,CGGCCTCGC,1.07
20,CGGCCTGGTA,0.977
21,CGGCCTTTAA,0.96
22,CGGCGAATAG,1.05
23,CGGCGACGGG,1
24,CGGCGAGGAA,1.01
25,CGGCGCGATA,4.54
26,CGGCGGAGTG,0.978

row,Sequence,switch fluorescence ratio
1,CGGCGTATGT,1.04
2,CGGCTCTGC,0.989
3,CGGCTGAGT,1.02
4,CGGCTGTCTA,0.989
5,CGGCTTTT,0.949
6,CGGGAAGATC,1.14
7,CGGGAAGTGA,0.974
8,CGGGACAGGT,1.25
9,CGGGACCAAT,1.04
10,CGGGACCGGT,0.98
11,CGGGACGAG,0.992
12,CGGGACGTAA,0.998
13,CGGGACGTTC,1
14,CGGGACTAAC,1.08
15,CGGGACTTTG,1.01
16,CGGGAGATAT,1.03
17,CGGGAGATTT,0.986
18,CGGGAGTGGG,0.955
19,CGGGATCAGC,0.988
20,CGGGATCGAG,1.02
21,CGGGATTCTA,0.982
22,CGGGCATAGT,0.95
23,CGGGCATGCA,1.01
24,CGGGCCACCG,0.956
25,CGGGCCCAAG,1.03
26,CGGGCGAGGC,0.993

row,Sequence,switch fluorescence ratio
1,CGGGCGGAAG,1
2,CGGGCGGACG,0.855
3,CGGGCTACCC,0.954
4,CGGGCTGGCG,1.26
5,CGGGCTTCTC,1.01
6,CGGGGAGCAG,0.979
7,CGGGGCCTAT,0.994
8,CGGGGCTGAG,0.995
9,CGGGGGCCTT,1.02
10,CGGGGGTCAC,1.03
11,CGGGTAAGAT,0.982
12,CGGGTATGTT,0.996
13,CGGGTCAAAC,1.09
14,CGGGTGAATC,1.04
15,CGGGTGACGT,1.02
16,CGGGTGAGAA,1.02
17,CGGGTTAAGC,1.03
18,CGGGTTAC,1.11
19,CGGGTTAGGG,0.953
20,CGGGTTGTGC,0.957
21,CGGGTTTATG,0.966
22,CGGGTTTTGT,1.01
23,CGGTAAAAAC,0.951
24,CGGTACAGTT,1.01
25,CGGTACCGCA,1.03
26,CGGTAGAGCT,0.972

row,Sequence,switch fluorescence ratio
1,CGGTATATCT,1.02
2,CGGTATGGAC,0.982
3,CGGTCAAGTA,0.915
4,CGGTCATGG,1.03
5,CGGTCATGTC,1.02
6,CGGTCCGGAG,1.04
7,CGGTCCTTTT,0.986
8,CGGTCGATGT,0.995
9,CGGTCGC,0.968
10,CGGTCGCGGT,1.01
11,CGGTCGGCCG,0.977
12,CGGTCTCGTT,0.998
13,CGGTGAATAG,1.02
14,CGGTGCTGAG,1.02
15,CGGTGGCG,1.06
16,CGGTGGCGGA,1.01
17,CGGTGGCTCT,1
18,CGGTGTCCAT,0.94
19,CGGTGTTGAC,1.01
20,CGGTTAGGAG,0.995
21,CGGTTCCAAA,1.05
22,CGGTTCCAGC,1.06
23,CGGTTGCCTT,0.932
24,CGGTTTGCT,1.01
25,CGGTTTGGGC,0.959
26,CGTAACATGC,1.4

row,Sequence,switch fluorescence ratio
1,CGTAACTACC,1.23
2,CGTAAGAAGC,1.03
3,CGTAATAACT,1.37
4,CGTAATAGG,1.18
5,CGTAATAGTG,1.15
6,CGTAATGTGT,0.987
7,CGTAATTGG,1.01
8,CGTACATATA,1.05
9,CGTACCCGGA,0.995
10,CGTACCGATC,1.07
11,CGTACTCTGG,0.983
12,CGTAGATACT,1.16
13,CGTAGGAGGT,1.03
14,CGTAGTAACG,0.979
15,CGTATAAGTG,0.965
16,CGTATCAGAT,1.03
17,CGTATCGATA,0.992
18,CGTATGAGAC,1.04
19,CGTATGCCAA,0.966
20,CGTATGGGTT,1.01
21,CGTATGTACT,1.02
22,CGTATGTAGC,0.929
23,CGTATTAAAC,1
24,CGTATTCGAG,0.95
25,CGTATTCTT,0.952
26,CGTATTGATA,1

row,Sequence,switch fluorescence ratio
1,CGTATTGTGT,0.979
2,CGTCAAAACA,1.03
3,CGTCAAAGCC,1.05
4,CGTCAAATC,0.997
5,CGTCAAGAAG,0.983
6,CGTCAAGCAG,1.16
7,CGTCCAAGGT,1.12
8,CGTCCTGAGT,1.02
9,CGTCGAATTA,1.02
10,CGTCGACCCA,0.994
11,CGTCGAGTC,1.02
12,CGTCGCAACT,2.29
13,CGTCGCGCGC,1.06
14,CGTCGGGCTG,1.01
15,CGTCGGTGAG,0.966
16,CGTCGTGAGG,1.01
17,CGTCTAAACG,0.965
18,CGTCTAACCC,0.984
19,CGTCTAATCA,0.983
20,CGTCTACGAT,1.02
21,CGTCTATTTT,0.997
22,CGTCTGCCAC,1.43
23,CGTCTTTGTG,0.969
24,CGTCTTTTTC,0.953
